# Results: ChEMBL document CHEMBL4888484, “Replenishing the malaria drug discovery pipeline: Screening and hit evaluation of the MMV Hit Generation Library 1 (HGL1) against asexual blood stage Plasmodium falciparum ,using a nano luciferase reporter read-out” (2022)
# Among all 150,000 compounds or so, about 540 (0.36%) showed an effect of 50% or more. This is one part of the list.
# System: Plasmodium falciparum
# Assay: Primary screen in NF54 nanoGlo assay, in single point, at 2uM, 72h; a lower Z score goes with more inhibition
# Type: functional, Erythrocyte
# Conditions: timepoint 72 hour
Structure (SMILES),% Inhibition,Z score
CC(C)(C(=O)NCc1cc[nH]n1)c1ccc(Cl)cc1F,6%,-1.04
Cc1nc2c(C)cccc2cc1C(=O)N1CC2(CNC(=O)N2)C1,-3%,0.56
CCCOc1ccc(CN2C[C@H](COc3cccnc3)C3(CCOCC3)C2)cc1,19%,-2.49
Cc1c(-c2ccc(F)cc2)[nH]c2ccc(CNC(=O)CCN3CCCO3)cc12,1%,-0.22
CCC(=O)NCc1ccc(-c2noc(Cc3ccc(C)cc3)n2)s1,-6%,0.69
CC(C)CN(CC(C)C)S(=O)(=O)c1cccc(Br)c1,-12%,1.41
Cc1nnc(NC(=O)C2(C)CC2F)s1 (centres undefined),-3%,0.34
CCOc1ccc(C(=O)Nc2ccc3ncnc(N4CCCCC4)c3c2)cc1,6%,-1.07
CCC(=O)N1CCN(C(=O)c2ccc(=O)n(C)c2)C1,-9%,1.02
O=C1CCC2(CCN(c3ccc(Cl)cn3)CC2)CN1[C@H]1CC[C@H](O)CC1,-13%,1.75
O=C(C[C@H]1CNCCO1)NCC1CCC(c2nc3ccccc3[nH]2)CC1 (some centres undefined),3%,-0.48
Cc1ncc2c(n1)CN(C1CC(C)OC1=O)CC2 (centres undefined),-5%,0.86
CCN(CC)c1ccc(-c2nc(C3(S(C)(=O)=O)CC3)no2)cn1,5%,-0.78
CCCc1nc(C)c(CNC(=O)c2ccc(OC)c(O)c2)s1,-4%,0.88
Cc1cnc(CNC(=O)N2CCOCC2)o1,3%,-0.4
COCCN(CC(=O)N1N=C(c2ccc(OC)cc2)C[C@H]1c1ccc(OC)cc1)C(=O)c1cccc(F)c1,-2%,0.28
CCN(CC)S(=O)(=O)c1ccc2c(c1)nnn2CCC(=O)NC(C)(C)C,5%,-0.5
COCCNC(=O)C1CCC(c2ccccc2)N(C(=O)c2ccccc2F)C1 (centres undefined),-13%,1.68
CCn1nccc1C(=O)N1CC[C@H](c2nc3cccnc3n2CC)C1,2%,-0.21
CCn1cc(S(=O)(=O)N2CCc3ccccc3CC2)cc1C(=O)O,20%,-2.27
COc1ccc(CC(=O)N2CCNc3ncc(C)cc32)c(C)c1,-13%,1.53
CC(C)c1nc(C(=O)N2CCc3[nH]c4c(Cl)cccc4c3C2)cs1,8%,-1.18

Structure (SMILES),% Inhibition,Z score
CCn1cc(-c2ccc(C)cc2)cc1C(=O)NCc1ccccn1,10%,-1.62
Cc1ccccc1NC(=O)N1CCC(N2C(=O)COCC2=O)CC1,13%,-1.69
CC(C)(C)OC(=O)N1CC2(C1)NCCn1cccc12,-11%,1.1
Cc1nnc(N2CCN(S(=O)(=O)c3conc3C)CC2)s1,3%,-0.31
Cc1c(-c2cccc(-c3ccn(CCF)n3)c2)c(=O)n(C)c(=O)n1C,8%,-1.33
COc1ccc(NC(=O)CN2C(=O)COc3ccc(C(=O)N4CCCCC4)cc32)cc1,-2%,0.2
Cc1c(C(=O)O)nn(-c2ccc(F)cc2)c1Oc1ccc(NC(=O)CC(C)C)cc1S(=O)(=O)NCC(C)C,-16%,1.93
CN(C)c1cccc(C(=O)N[C@@H](CO)C(C)(C)C)c1,35%,-3.95
CCNC(=O)N1CC[C@H](OCCCc2ccccc2)C1,-4%,0.65
Cc1ccc2nc(N3CCC[C@H](O)C3)c(CN(C)Cc3ccnc(C)c3)cc2c1,4%,-0.55
Cc1nn(CCO)cc1CNCc1cc(CC(C)C)no1,-10%,1.6
N#CC1(CS(=O)(=O)N2CC3(CCCCC3)[C@H]2c2ccccc2)CC1,-5%,0.54
Cc1ccccc1C1CC1Nc1ncccn1 (centres undefined),-9%,1.2
Cc1nccc(NC(=O)NC(CC2CCCO2)C(F)(F)F)c1Br (centres undefined),6%,-0.86
C#CCN(CCCc1ccccc1C)[C@H]1CCS(=O)(=O)C1,39%,-4.45
Cc1ncc(CN2CCC(Oc3cccc(F)c3)(C(=O)O)CC2)n1C,-8%,1.53
Cc1noc(CNC(=O)c2nnn(-c3nc4c(s3)CCCC4)c2C)n1,-10%,1.81
CN(C1(CO)CCC1)S(=O)(=O)c1cnc2ccsc2c1,-9%,0.74
CC(=O)c1c(C)nn([C@@H](C)CC(=O)NCCc2nc(C)c3c(n2)CCC3)c1C,5%,-0.97
COc1ccc(Cl)cc1NC(=O)C12CCC(C)(C(=O)C1=O)C2(C)C (centres undefined),-12%,1.48
CC1(C)[C@@H]2CCC13CS(=O)(=O)N(Cc1ccc(S(C)(=O)=O)o1)[C@H]3C2,7%,-0.91
O=C(NCc1cc(Oc2cccc(Cl)c2)ccn1)C1CCOCC1,1%,-0.28

Structure (SMILES),% Inhibition,Z score
CC1CN(c2cc(C(=O)c3cccnc3)ccn2)CC(C2CC2)O1 (centres undefined),-8%,0.84
Cc1cncc(C(=O)Nc2cnccn2)c1,-11%,1.12
Cc1oc(C2CCN(C(=O)Nc3cccc(F)c3C)CC2)nc1C(=O)N1CCCC1,-3%,0.55
CO[C@H](c1ccc(C)cc1)c1c(C)oc2cc(C#N)c(C#N)cc12,-9%,1.37
COCCC(NC(=O)C1CCCc2[nH]ncc21)c1ccc(Cl)cc1 (centres undefined),-14%,1.69
CC(C)(C)CC(=O)NC[C@H]1OC[C@@H](NCc2ccncc2)[C@@H]1O,-1%,0.16
COc1nc(C)c(-c2cccc(NC(C)=O)c2)c(C)c1C#N,2%,-0.48
CC(=O)N1CCCc2cc(-c3cnn(C)c3)ccc21,-12%,1.16
CC(=O)c1cc(-c2cccc3cccnc23)ccc1O,-3%,0.49
CCc1ncc(S(=O)(=O)N2CC(C)(C)[C@@H]2C2CC2)s1,-3%,0.35
CCCC(=O)n1nc(CC)c2c1CC(C)(C)CC2=O,-18%,2.41
O=C(NC[C@@H](CO)CC1CCCCC1)c1ccc2c(c1)OCCO2,-5%,0.5
O=C(NC[C@H](O)c1ccc(-c2ccco2)o1)NC1CCCC1,8%,-1.11
CCS(=O)(=O)c1cccc(CC(=O)N2CC(C)CC2c2ccccc2)c1 (centres undefined),1%,-0.09
CCCc1cc(N2CCc3c(nc(C4CC4)n3C)C2)n2ncnc2n1,-1%,0.15
O=C(c1ccc(Cl)cc1)n1c2ccccc2c2ccccc21,-9%,0.76
Cc1nnc(Cc2ccc(NC(=O)CCc3cc4n(n3)CCNC4)cc2)[nH]1,-12%,1.48
O=C1CCC[C@]2(c3ccccc3)NCCN12,5%,-0.69
O=c1ccc(-c2nc(-c3ccccc3F)no2)c[nH]1,-15%,1.65
CC(=O)Nc1ccc(CN2C[C@H](C(=O)O)[C@@H](c3ccc4c(c3)OCO4)C2)cc1,1%,-0.16
O=C(C(=O)N1CCCc2ccccc21)N1CCN(CCO)CC1,-4%,0.49
O=C(NCC1CCCCC1)N1CCC(c2nccn2CC2CCC2)CC1,8%,-1.37

Structure (SMILES),% Inhibition,Z score
CCc1nc(C)c([C@@H]2C[C@H](NC(C)=O)C[C@H](CCc3ccccc3)O2)[nH]1,-1%,0.14
O=C(CN1CCC(NC2CCCC2)CC1)NC1CCCCCCC1,12%,-1.18
CC[C@H](N)c1cc(Cl)ccc1Cl,-13%,1.3
Cc1cccc(-c2nsc3c(=O)n(CC(=O)NCCc4ccc(Cl)cc4)cnc23)c1,-8%,1.34
CC(C)c1nsc(NC2C(=O)NCCC2C)n1 (centres undefined),-16%,1.44
Nc1ccc(C(=O)NCCc2csc(-c3ncccn3)n2)cn1,-4%,0.74
COCCS(=O)(=O)N1CCC(CCN(C)C)CC1,-5%,0.64
Cc1cc(C)n(-c2nccn3nc(C)cc23)n1,-11%,2.08
O=C1NC2(CCCC2)C(=O)N1CCn1nc(C(F)(F)F)ccc1=O,-11%,1.7
CCc1[nH]c2ccc(CN[C@@H](C)Cn3nc(C)cc3C)cc2c1C,7%,-0.83
O=C1CN(C(=O)c2ncc3ccccc3c2O)CN1CCC(F)(F)F,-10%,1.51
COc1ccc(CN2CCOC[C@@H]2CC(=O)NCC2=CCCCC2)c(C)c1C,-3%,0.3
NCC1CN(C(=O)C2CCCc3ccccc32)CCO1 (centres undefined),-1%,0.08
COc1cccc(NS(=O)(=O)c2cc3c(cc2Br)C[C@H](C)N3C(C)=O)c1,-1%,0.09
O=C(Nc1ccc2c(c1)OCO2)N1CC(n2nccn2)C1,14%,-2.28
O=C(Cc1cccnc1)N1CCC[C@H](Oc2cnccn2)C1,-18%,3.14
Cc1nc(C)c(C)c(N2C[C@H](CO)[C@@H](CO)C2)n1,-4%,0.86
COCc1cc(-c2nc(C3(c4ccccc4)CCC3)no2)no1,5%,-0.9
CC[C@H](C)CS(=O)(=O)N(Cc1ccccn1)c1ccncc1,-6%,0.91
OCc1cccc(-c2ncnc3sccc23)c1,-10%,2.06
O=C(CCc1cc2n(n1)CCNC2)Nc1cccc(-c2cccnc2)c1,-25%,2.17
